# This is one part of the list. Sequences were assembled here from the parent chain. Inactive controls read about 0.05.
# B1: TEV protease; numbered along this chain (parent)
# chain: MGESLFKGPRDYNPISSSICHLTNESDGHTTSLYGIGFGPFIITNKHLFRRNNGTLVVQSLHGVFKVKDTTTLQQHLVDGRDMIIIRMPKDFPPFPQKLKFREPQREERICLVTTNFQTKSMSSMVSDTSCTFPSGDGIFWKHWIQTKDGQCGSPLVSTRDGFIVGIHSASNFTNTNNYFTSVPKNFMELLTNQEAQQWVSGWRLNADSVLWGGHKVFMVKPEEPFQPVKEATQL
# Variants of: B1
# Assay: raw area under fraction-flipped curve 0-4 h after induction (AUC4h, not background-subtracted), DNA-recorder readout of cleavage of the substrate (dimensionless); higher = more cleavage of the substrate by the protease variant
# Conditions: temperature: 34 °C; time window: 0-4 h after rhamnose induction
# Procedure: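 In vivo DNA recorder in E. coli TOP10(DE3) ΔrhaA at 34 °C. Each TEVp single-site mutant (parent TEVp 0) is paired with a single-site variant of the 7-mer TEVs (canonical ENLYFQ|S). The substrate sits between flexible linkers in a Bxb1-sfGFP-TEVs-SsrA fusion, so cleavage stabilises Bxb1 and speeds flipping of a recombination array, read by NGS. The value is the raw area under the fraction-flipped curve over 0-4 h after rhamnose induction (AUC4h), with ≥20 reads per time point. It is not background-subtracted; inactive controls average about 0.047.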
# 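Note: Bxb1 expression induced with 0.2% (w/v) L-rhamnose at OD600 near 0.5, cultures sampled hourly, flipped fraction per protease–substrate barcode pair counted by paired-end Illumina sequencing.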
Variant,area with substrate ENLYFAS,area with substrate ENLYFCS,area with substrate ENLYFDS,area with substrate ENLYFES,area with substrate ENLYFFS,area with substrate ENLYFGS,area with substrate ENLYFHS,area with substrate ENLYFIS,area with substrate ENLYFKS,area with substrate ENLYFMS,area with substrate ENLYFNS,area with substrate ENLYFPS,area with substrate ENLYFRS,area with substrate ENLYFSS,area with substrate ENLYFTS,area with substrate ENLYFWS,area with substrate ENLYFYS,area with substrate ENLYFLS,area with substrate ENLYFVS
MGESLFKGPRDYNPISSSICHLTNESDGHTTSLYGIGFGPFIITNKHLFRRNNGTLVVQSLHGVFFVKDTTTLQQHLVDGRDMIIIRMPKDFPPFPQKLKFREPQREERICLVTTNFQTKSMSSMVSDTSCTFPSGDGIFWKHWIQTKDGQCGSPLVSTRDGFIVGIHSASNFTNTNNYFTSVPKNFMELLTNQEAQQWVSGWRLNADSVLWGGHKVFMVKPEEPFQPVKEATQL [K66F],0.0597,0.0573,0.0459,0.0608,0.0551,0.0609,0.0638,0.0594,0.058,0.099,0.0597,0.0577,0.0632,0.0594,0.0557,0.0575,0.0525,,
MGESLFKGPRDYNPISSSICHLTNESDGHTTSLYGIGFGPFIITNKHLFRRNNGTLVVQSLHGVFKVKDTTTLQQHLVDGRDMIIIRMPKDFPPFPQKLKFREPQREERICLVTTNFQTKSMSSMVSDTSCTFPSGDGIFWKHWIQTKDGQCGSPLVSTRDGFEVGIHSASNFTNTNNYFTSVPKNFMELLTNQEAQQWVSGWRLNADSVLWGGHKVFMVKPEEPFQPVKEATQL [I164E],0.0581,0.0647,,0.0151,0.048,0.0382,0.0492,0.0547,0.0499,0.0645,,,0.0444,0.0236,0.0575,,,0.0643,0.0414
MGESLFKGPRDYNPISSSICHLTNESDGHTTSLYGIGFGPFIITNKHLFRRNNGTLVVQSLHGVFKVKDTTTLQQHLVGGRDMIIIRMPKDFPPFPQKLKFREPQREERICLVTTNFQTKSMSSMVSDTSCTFPSGDGIFWKHWIQTKDGQCGSPLVSTRDGFIVGIHSASNFTNTNNYFTSVPKNFMELLTNQEAQQWVSGWRLNADSVLWGGHKVFMVKPEEPFQPVKEATQL [D79G],0.0613,0.0568,,0.0696,0.0662,0.0602,0.064,0.055,0.0732,0.0588,0.054,0.0688,0.0466,0.0673,0.0273,0.0618,,,0.0348
MGESQFKGPRDYNPISSSICHLTNESDGHTTSLYGIGFGPFIITNKHLFRRNNGTLVVQSLHGVFKVKDTTTLQQHLVDGRDMIIIRMPKDFPPFPQKLKFREPQREERICLVTTNFQTKSMSSMVSDTSCTFPSGDGIFWKHWIQTKDGQCGSPLVSTRDGFIVGIHSASNFTNTNNYFTSVPKNFMELLTNQEAQQWVSGWRLNADSVLWGGHKVFMVKPEEPFQPVKEATQL [L5Q],0.0507,0.0554,,0.0678,0.0663,0.0627,0.0735,0.0478,0.0574,0.0668,0.062,0.0593,0.0703,0.0548,0.0472,0.0456,0.0543,,0.0648
MGESLFKGPRDYNPISSSICHLTNESDGHTTSLYGIGFGPFIITNKHLFRRNNGTLVVQSLHGVFKVKDTTTLQQHLVDGRDMIIIRMPKDFPPFPQKLKFREPKREERICLVTTNFQTKSMSSMVSDTSCTFPSGDGIFWKHWIQTKDGQCGSPLVSTRDGFIVGIHSASNFTNTNNYFTSVPKNFMELLTNQEAQQWVSGWRLNADSVLWGGHKVFMVKPEEPFQPVKEATQL [Q105K],0.0617,0.0577,0.0557,0.0621,0.0659,0.0727,0.0521,0.057,0.0679,0.0736,0.072,0.0609,0.037,0.0662,0.06,0.0681,0.0571,0.062,
MGESLFKGPRDYNPISSPICHLTNESDGHTTSLYGIGFGPFIITNKHLFRRNNGTLVVQSLHGVFKVKDTTTLQQHLVDGRDMIIIRMPKDFPPFPQKLKFREPQREERICLVTTNFQTKSMSSMVSDTSCTFPSGDGIFWKHWIQTKDGQCGSPLVSTRDGFIVGIHSASNFTNTNNYFTSVPKNFMELLTNQEAQQWVSGWRLNADSVLWGGHKVFMVKPEEPFQPVKEATQL [S18P],0.102,0.044,,0.0486,,,0.0273,0.0624,0.053,0.0512,0.0452,0.0619,0.0508,,0.0669,0.057,0.0637,0.0535,
MGESLFKGPRDYNPISSSTCHLTNESDGHTTSLYGIGFGPFIITNKHLFRRNNGTLVVQSLHGVFKVKDTTTLQQHLVDGRDMIIIRMPKDFPPFPQKLKFREPQREERICLVTTNFQTKSMSSMVSDTSCTFPSGDGIFWKHWIQTKDGQCGSPLVSTRDGFIVGIHSASNFTNTNNYFTSVPKNFMELLTNQEAQQWVSGWRLNADSVLWGGHKVFMVKPEEPFQPVKEATQL [I19T],0.0564,,,,0.048,0.0568,,0.049,0.0584,0.0572,0.0679,0.0619,,,0.0684,0.0555,0.0528,0.0546,
MGESLFKGPRDYNPISSSICHLTNESDGHTTSLYGIGFGPFIITNKHLFRRNNGTLVVQSLHGVFKVKDTTTLQQHLVDGRDMIIIRMPKDFPPFPQKLKFREPQREERICLVTTNFQTKSMSSMVSDTSCTFPSGDGIFWKHWIQTKDGQCGSPLVSTRDGFIVGIHSASNFTNTNNYFTSVPKNFMELLTNQEAQQWVSGWRLNADSVLWGGHKVFMVKPEETFQPVKEATQL [P225T],0.0688,0.068,,,0.0736,0.0458,,0.0585,0.0701,0.0529,0.073,0.043,0.0453,0.0594,0.0595,0.0638,0.0655,0.0708,0.0705

# Reference: the supplement of paper PMC12217912
